Source: article PMC4297356
Results are given in words; binding and its absence hold for the method and conditions named. Binding seen in cells or lysates may run through a third protein. Some results given as binding are weak or reduced against the parent protein; the word gives no strength. For some assays here: Sequences can lack the tags named with a protein.

Chains of the proteins cited; added tags and fusions are not shown.
UniProt P22358: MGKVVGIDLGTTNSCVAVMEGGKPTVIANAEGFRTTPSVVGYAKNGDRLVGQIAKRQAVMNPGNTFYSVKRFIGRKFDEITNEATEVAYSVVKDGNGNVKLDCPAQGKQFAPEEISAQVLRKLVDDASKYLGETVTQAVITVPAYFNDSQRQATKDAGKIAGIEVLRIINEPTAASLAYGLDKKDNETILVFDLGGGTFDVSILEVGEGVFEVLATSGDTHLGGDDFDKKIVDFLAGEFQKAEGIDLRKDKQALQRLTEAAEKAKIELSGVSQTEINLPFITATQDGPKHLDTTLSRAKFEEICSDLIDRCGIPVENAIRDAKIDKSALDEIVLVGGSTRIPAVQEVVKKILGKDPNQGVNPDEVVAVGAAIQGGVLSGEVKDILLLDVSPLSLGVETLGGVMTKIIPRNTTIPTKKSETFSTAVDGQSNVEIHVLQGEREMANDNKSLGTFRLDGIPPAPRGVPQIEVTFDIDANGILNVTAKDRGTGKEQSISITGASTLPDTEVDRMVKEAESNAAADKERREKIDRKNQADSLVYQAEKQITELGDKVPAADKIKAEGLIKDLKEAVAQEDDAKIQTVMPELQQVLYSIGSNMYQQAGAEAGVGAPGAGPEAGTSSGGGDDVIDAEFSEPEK

T1: FutA1–GFP (GFP-tagged FutA1) (Synechocystis sp. PCC6803) (UniProt P72827)
T1 sequence: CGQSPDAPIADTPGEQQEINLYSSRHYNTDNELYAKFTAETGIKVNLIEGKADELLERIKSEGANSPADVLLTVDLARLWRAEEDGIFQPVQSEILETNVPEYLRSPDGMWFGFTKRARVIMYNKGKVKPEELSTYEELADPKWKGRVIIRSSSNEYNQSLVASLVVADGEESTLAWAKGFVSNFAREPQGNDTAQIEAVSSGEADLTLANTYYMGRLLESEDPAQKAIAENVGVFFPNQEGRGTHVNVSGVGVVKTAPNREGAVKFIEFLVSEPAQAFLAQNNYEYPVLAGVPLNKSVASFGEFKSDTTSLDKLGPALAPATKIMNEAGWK

T2: Vipp1–GFP (Synechocystis Vipp1 tagged with green fluorescent protein at the C-terminus) (Synechocystis sp. PCC6803) (UniProt Q55707)
T2 sequence: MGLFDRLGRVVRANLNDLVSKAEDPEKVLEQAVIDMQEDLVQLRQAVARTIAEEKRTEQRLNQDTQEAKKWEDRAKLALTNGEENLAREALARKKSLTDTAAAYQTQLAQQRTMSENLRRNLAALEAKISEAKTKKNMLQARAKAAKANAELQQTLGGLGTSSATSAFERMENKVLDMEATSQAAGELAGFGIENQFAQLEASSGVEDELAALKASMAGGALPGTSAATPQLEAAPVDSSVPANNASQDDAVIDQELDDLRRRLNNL

T3: Vipp1 with an N-terminal His-tag (Synechocystis sp. PCC6803) (UniProt Q55707)
T3 sequence: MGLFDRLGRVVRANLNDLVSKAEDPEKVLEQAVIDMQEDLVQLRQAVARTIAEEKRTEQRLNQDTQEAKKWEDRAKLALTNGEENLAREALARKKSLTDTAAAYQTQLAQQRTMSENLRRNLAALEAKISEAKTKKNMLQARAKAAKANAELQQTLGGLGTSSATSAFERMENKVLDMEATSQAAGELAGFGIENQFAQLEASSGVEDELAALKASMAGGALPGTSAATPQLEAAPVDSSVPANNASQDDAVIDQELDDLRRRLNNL

T4: Vipp1 (Synechocystis sp. PCC6803 (endogenous in Synechocystis)) (UniProt Q55707)
T4 sequence: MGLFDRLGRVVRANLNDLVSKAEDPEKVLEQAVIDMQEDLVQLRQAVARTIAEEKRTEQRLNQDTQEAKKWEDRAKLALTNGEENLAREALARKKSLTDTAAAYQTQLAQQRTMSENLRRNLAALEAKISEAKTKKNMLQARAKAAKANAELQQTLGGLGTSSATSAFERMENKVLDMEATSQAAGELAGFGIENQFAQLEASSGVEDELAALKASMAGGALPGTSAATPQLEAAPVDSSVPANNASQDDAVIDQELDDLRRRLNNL


Legend:
[1] = target: T1, FutA1–GFP (GFP-tagged FutA1) (Synechocystis sp. PCC6803); experiment: co-IP; anti-GFP microbeads (μMACS column) on lysates of HL-treated Synechocystis vipp1–gfp, futA1–gfp and wild-type cells; GFP affinity-bound fraction immunoblotted
[2] = target: T2, Vipp1–GFP (Synechocystis Vipp1 tagged with green fluorescent protein at the C-terminus) (Synechocystis sp. PCC6803); experiment: as above
[3] = target: T3, Vipp1 with an N-terminal His-tag (Synechocystis sp. PCC6803); experiment: pull-down; His-tagged Vipp1 left on the Ni-NTA matrix, incubated with Synechocystis cellular extract (cells not exposed to HL) with 5 mM ATP or 10 U apyrase; Western blot with anti-DnaK2; only the target purified
[4] = target: T2, Vipp1–GFP (Synechocystis Vipp1 tagged with green fluorescent protein at the C-terminus) (Synechocystis sp. PCC6803); experiment: condition: only cells grown in low light (LL), not exposed to HL; co-IP; anti-GFP microbeads (μMACS column) on lysate of LL-grown (8 μE m^−2 s^−1) Synechocystis vipp1–gfp cells; GFP affinity-bound fraction immunoblotted
[5] = target: T4, Vipp1 (Synechocystis sp. PCC6803 (endogenous in Synechocystis)); experiment: co-IP; antiserum (anti-DnaK2; also Vipp1 antibodies) coupled to protein A sepharose, incubated with Synechocystis cellular extracts (cells not exposed to HL); Western blot with antibodies against DnaK2 and Vipp1; pre-immune serum as control
[6] = target: Chaperone protein DnaK2 (Synechocystis sp. PCC6803 (endogenous in Synechocystis)) (UniProt P22358); experiment: as above

Row | binding [1] | binding [2] | binding [3] | binding [4] | binding [5] | binding [6] | Molecule
1 | no binding | binds | binds | no binding | binds | – | Chaperone protein DnaK2 (from UniProt P22358 1-636)
2 | no binding | binds | – | no binding | – | – | Chaperone protein DnaK3 (protein, UniProt P73098 1-771) MGKVVGIDLGTTNSVVAVMEGGKPIVIANAEGMRTTPSVVGFNKEGELVVGQMGRRQAVLNPQNTFYGVKRFMGRRYTDLTPESKRVAYTIRRDDRDNIKVRCPRLKKDFAPEEISAMILRKLAEEASRYLGEKVTGAVITVPAYFNDSQRQATRDAGKIAGLEVLRIINEPTAASLAYGLDQGRIQKILVFDLGGGTFDVSVLEVGDGIFEVKATSGDTQLGGNDFDRRIVDWLAEKFLEAEKVDLRQDRQALQRLTEAAEKAKIELSGVGTTEINLPFITATEDGPKHLETQLSRSEFEDLCGDLVTRLQRPVKRVLKDAGLSPVQIDEVVLVGGGTRMPMVKGLVRSFIDREPNENVNPDEVVAIGAAIQAGILDGEVKDILLLDVTPLSFGLETIGGVMKKLLPRNTTIPVRKSDIFSTGENNQTVVEVHVLQGEREMASDNISLGRFKLSGIPPAPRGVPQVQVSFDIDANGILQVTARDKTTGREQSITVQGASILSEGEVNRMIQEAETFAAQDRERRERIEKRNSAKALTDQAQRRLKEVTLDFGSAFTVSYRRQVDALCSEILDSLEKDDERRLDRAQADLQDVLYELNREVRLQYDDKEEGFFEAIKKTFTGDFDDDDDYYNRRPAPRDDYRGGNDYGRYDDYNYNAPSRREAPMPRAGAGRGPSLSKDYRSTAYADWDQSRVTRQRPYQGESLGGTYDDRRSSPQDDYSRGDRQKDYDYRENAPSRSGRGGNGRYGERPAQPGRNAPLQNGWDDDDDDWF
3 | no binding | binds | – | – | – | – | Elongation factor G1 (protein, UniProt P28371 1-695) MEKDLTRYRNIGIFAHVDAGKTTTTERILKLTGRIHKLGEVHEGESTMDFMEQEAERGITIQSAATSCFWKDHQLNVIDTPGHVDFTIEVYRSLKVLDGGIGVFCGSGGVEPQSETNWRYANDSKVARLIYINKLDRTGADFYRVVKQVETVLGAKPLVMTLPIGTENDFVGVVDILTEKAYIWDDSGDPEKYEITDIPADMVDDVATYREMLIETAVEQDDDLMEKYLEGEEISIDDIKRCIRTGTRKLDFFPTYGGSSFKNKGVQLVLDAVVDYLPNPKEVPPQPEVDLEGEETGNYAIVDPEAPLRALAFKIMDDRFGALTFTRIYSGTLSKGDTILNTATGKTERIGRLVEMHADSREEIESAQAGDIVAIVGMKNVQTGHTLCDPKNPATLEPMVFPDPVISIAIKPKKKGMDEKLGMALSKMVQEDPSFQVETDEESGETIIKGMGELHLDIKMDILKRTHGVEVEMGKPQVAYRESITQQVSDTYVHKKQSGGSGQYAKIDYIVEPGEPGSGFQFESKVTGGNVPREYWPAVQKGFDQSVVKGVLAGYPVVDLKVTLTDGGFHPVDSSAIAFEIAAKAGYRQSLPKAKPQILEPIMAVDVFTPEDHMGDVIGDLNRRRGMIKSQETGPMGVRVKADVPLSEMFGYIGDLRTMTSGRGQFSMVFDHYAPCPTNVAEEVIKEAKERQAAA
4 | no binding | binds | – | no binding | – | – | PSII assembly/repair factor Ycf48 (protein, UniProt P73069 29-342) CSHVPDLAFNPWQEIALETDSTFADIAFTEDPNHGWLVGTKETIFETTDGGDTWEQKLIDLGEEKASFSAVSFSGNEGWITGKPSILLHTTDGGQTWARIPLSEKLPGAPYSIIALGPQTAEMITDLGAIYKTTNGGKNWKALVEGAVGVARTIQRSTDGRYVAVSARGNFYSTWAPGQTEWTPHNRNSSRRLQTMGYGKDGQLWLLARGGQLQFSTDPDAEEWSDVIAPQDKGSWGLLDLSFRTPEEVWVAGASGNLLMSQDGGQTWAKDTGVEDIPANLYRVVFLSPEKGFVLGQDGILLKYNPSTEVAMVP
5 | – | – | – | – | – | binds | Vipp1 (protein, UniProt Q55707 1-267) MGLFDRLGRVVRANLNDLVSKAEDPEKVLEQAVIDMQEDLVQLRQAVARTIAEEKRTEQRLNQDTQEAKKWEDRAKLALTNGEENLAREALARKKSLTDTAAAYQTQLAQQRTMSENLRRNLAALEAKISEAKTKKNMLQARAKAAKANAELQQTLGGLGTSSATSAFERMENKVLDMEATSQAAGELAGFGIENQFAQLEASSGVEDELAALKASMAGGALPGTSAATPQLEAAPVDSSVPANNASQDDAVIDQELDDLRRRLNNL
